Assay results taken from PubChem BioAssay AID463173 (ICCB-Longwood Screening Facility, Harvard Medical School, 2010).
The campaign covered roughly 52,000 compounds. About 1,700 (3.3%) were called active. Cut-off read from the data, not from the text of the source: active = survival mostly below about 52% (no sharp cut-off); inactive = mostly above about 56%. Some of the results follow.

The molecules below were run on Wild type (assay: growth inhibition of S. aureus wild type versus tarO mutant, primary screen, teichoic acid synthesis inhibitors, RN4220, OD600 (AID 463173)). Settings: S. aureus RN4220 wild type/DeltatarO growth, OD600, 18 h, hits give low values, screened at 18.75 µg/mL (by protocol).

SMILES | survival
Cc1ccc2nc(-c3ccsc3)c(Nc3ccccc3C)n2c1 | inactive: 47%
Cc1nc2nncn2c(N2CCN(c3ccccc3)CC2)c1C | inactive: 98%
COc1ccccc1/C=C/c1nc(C#N)c(N2CCCCC2)o1 | inactive: 88%
COCCNC(=O)Cc1ccc(NC(=O)N2CCCCc3ccccc32)cc1 | inactive: 121%
O=C(NCc1ccc(F)cc1)c1ccc(CSCc2cccc(Cl)c2)o1 | inactive: 65%
CC(C)NC(=O)C1CCN(C(=O)NCc2ccccc2)CC1 | inactive: 99%
CCN(CC)C(=O)C1CCN(S(=O)(=O)c2ccc3c(c2)CCCN3C(C)=O)CC1 | inactive: 135%
Cc1ccc(-c2cc(C(F)(F)F)n3nc(C(=O)Nc4ccc(Cl)cc4Cl)cc3n2)cc1 | inactive: 87%
Cc1ccc(NC(=O)CSc2ncc3c(n2)-c2ccccc2N(Cc2cccc(F)c2)S3(=O)=O)cc1F | inactive: 55%
Cc1ccc(N2CC(NC(=O)/C=C\c3ccc4c(c3)OCO4)CC2=O)cc1C (configuration not stated) | inactive: 130%
O=C1c2ccccc2C(=O)C1(c1ccccc1)N1CCN(c2cccc(Cl)c2)CC1 | inactive: 135%
COCCNC(=O)c1cnn(-c2ccc(C)cc2C)c1C1CCN(C(=O)OC(C)(C)C)CC1 | inactive: 88%
COc1ccc(-n2c(/C=C/c3ccccc3F)nc3cc(OC)c(OC)cc3c2=O)cc1Cl | inactive: 69%
Cc1ccccc1Cn1c(C(=O)O)c(CNCc2cccc(F)c2)c2ccccc21 | inactive: 64%
Cn1cc(CN(C(=O)Nc2ccc(Cl)c(Cl)c2)C2CCCCC2)c2ccccc21 | inactive: 60%
CC1CN(C(=O)Nc2ccc(C(=O)NCCc3ccccc3)cc2)c2ccccc2S1 (configuration not stated) | inactive: 113%
Cc1cc(C)nc(NS(=O)(=O)c2ccc(NC(=O)COc3ccc(Cl)cc3C)cc2)n1 | inactive: 98%
CCNC(=O)C1CN(S(=O)(=O)c2ccccc2)CCN1S(=O)(=O)c1ccccc1 (configuration not stated) | inactive: 108%
CCOc1ccc(C(=O)Nc2cc(-c3nc4ccccc4o3)ccc2C)cc1Cl | inactive: 65%
CCN(Cc1ccccc1)C(=O)c1c(C)oc2ncn(C)c(=O)c12 | inactive: 66%
O=C(CSc1nccn1Cc1ccccc1)NCc1ccc(F)cc1 | inactive: 59%
CCOc1cc(-c2ccc(OC(=O)c3ccccc3F)cc2)cc(=O)c2c(C)oc(C)c12 | inactive: 78%

SMILES | survival
Cc1ccc(C(C(=O)NCc2ccccc2)N(C(=O)C2COc3ccccc3O2)c2cccc(O)c2)o1 (configuration not stated) | inactive: 53%
COc1ccc(-n2nc3ccc(NC(=O)c4ccc(-c5cc(Cl)ccc5Cl)o4)cc3n2)cc1 | inactive: 68%
C=CCc1ccccc1OCCSc1nc(-c2ccc(C(C)(C)C)cc2)nc2cc(=O)[nH]n12 | active: 0%
Clc1cccc(N2CCN(c3nc4ccccc4n4cnnc34)CC2)c1 | inactive: 70%
COc1ccc(-n2ccnc(NCc3ccc(Cl)cc3)c2=O)cc1 | active: 0%
COc1ccc(NC(=O)CCc2nnc3n(C)c(=O)c4sccc4n23)cc1 | inactive: 154%
CCN(c1cc(C)cc(C)c1)S(=O)(=O)c1nnc(NC(=O)C2CCCCC2)s1 | inactive: 111%
O=C(Nc1ccc(Br)c2cccnc12)c1cccc2ccccc12 | inactive: 35%
Cc1cc(C)cc(NC(=O)CCC(=O)N2Cc3ccccc3Oc3ncccc32)c1 | inactive: 87%
COc1cccc(NC(=O)C2CCCN(S(=O)(=O)c3c(C)[nH]c(=O)[nH]c3=O)C2)c1 (configuration not stated) | inactive: 131%
CCCc1cnc2c(c1SCC(=O)N(C)c1ccccc1)c(=O)n(C)c(=O)n2C | inactive: 133%
Cc1c(Cl)ccc2sc(NC(=O)c3ccc(S(=O)(=O)N4CCCc5ccccc54)cc3)nc12 | inactive: 47%
Cc1ccc(CCNC(=O)c2cc3sccc3n2Cc2ccc(C)cc2)cc1 | inactive: 89%
Cc1c(Cl)cccc1-c1ccc(CNc2ccc3[nH]c(=O)[nH]c3c2)o1 | inactive: 86%
CC1CCN(S(=O)(=O)c2ccc3c(c2)oc(=O)n3CC(=O)NCc2ccc(F)cc2)CC1 | inactive: 138%
Cc1cc(C)cc(-n2c(SCC(=O)N3CCCCC3)nc3c([nH]c4ccccc43)c2=O)c1 | inactive: 78%
CCc1ccccc1NC(=O)c1nnn(-c2ccc(F)cc2)c1C | inactive: 69%
COc1cc2ccccc2cc1C(=O)Nc1ccc2oc(-c3ccc(F)cc3)nc2c1 | inactive: 81%
COc1ccc(NC(=O)c2oc3ccccc3c2NC(=O)c2cccc(F)c2)c(OC)c1 | inactive: 81%
CCOc1ccc(NC(=O)Cn2c(=O)n(Cc3ccco3)c(=O)c3oc4ccccc4c32)cc1 | inactive: 86%
Cc1ccc(SCc2nc(-c3ccc(C(=O)NCc4ccc(Cl)cc4)cc3)oc2C)cc1 | inactive: 64%
O=C(NC1CCCCC1)c1cc(Nc2cccc(C(F)(F)F)c2)nc2ccccc12 | inactive: 72%

SMILES | survival
COc1cc(NC(=O)c2noc3c2CSc2ccccc2-3)cc(OC)c1OC | inactive: 120%
COc1cc(C(=O)Nc2nc3nc(-c4ccccc4)cc(=O)n3[nH]2)cc(OC)c1OC | inactive: 89%
Cc1ccn2c(=O)cc(CSc3nnc(NC(=O)c4ccccc4Cl)s3)nc2c1 | inactive: 82%
Cc1cc(C)c(CSc2nnc(C)n3c2cc2occc23)c(C)c1 | inactive: 36%
CCN(Cc1ccccc1)C(=O)c1nc(-c2cccc(F)c2)n2c1CCCCC2 | inactive: 113%
Cc1ccn2c(Nc3ccccc3C)c(-c3ccccn3)nc2c1 | active: 24%
COCCCNC(=O)C1CCCN(C(=O)c2cnn(-c3ccc(F)cc3)c2-n2cccc2)C1 (configuration not stated) | inactive: 128%
COc1ccc(CNC(=O)c2cc3c(=O)[nH]c4ccccc4c3s2)cc1 | inactive: 87%
CCOC(=O)c1ccccc1NC(=O)CCOc1ccccc1 | active: 6%
Cc1cccc(N2CCN(C(=O)NCc3noc4ccccc34)CC2)c1C | inactive: 73%
Cc1cccc(-c2noc(CN(C(=O)COc3ccc(Br)cc3C)C(C)C)n2)c1 | inactive: 30%
O=C(NC1CCCCC1)c1cc2c(Cl)nc3ccccc3c2s1 | inactive: 77%
CCn1cnc2sc(C)c(C)c2c1=O | inactive: 91%
COc1ccccc1CNC(=O)C(=O)NCC(c1ccco1)S(=O)(=O)c1cccs1 (configuration not stated) | inactive: 101%
COc1ccc(Cl)cc1NC(=O)Cn1c(=O)n(Cc2ccco2)c(=O)c2cccnc21 | inactive: 80%
CCn1c(=O)n(CC)c2cc(N3CCCCC3)c(NC(=O)Nc3cc(C)cc(C)c3)cc21 | inactive: 73%
CCn1cc(C(=O)N2CCN(c3cc(C)ccc3C)CC2)c(=O)c2cc(S(=O)(=O)N3CCOCC3)ccc21 | inactive: 81%
COc1ccc(C(=O)NCCn2cc(SCC(=O)Nc3cccc(C)c3)c3ccccc32)cc1 | inactive: 74%
O=C1C2C3C=CC(C3)C2C(=O)N1C1CC2CCC1C2 (configuration not stated) | inactive: 110%
Cc1oc2ncn(CC(C)C)c(=O)c2c1C(=O)N1CCN(c2cccc(C(F)(F)F)c2)CC1 | inactive: 100%
CCOC(=O)C1CCN(C(=O)Cn2c(=O)cc(C)c3c(C)nn(C)c32)CC1 | inactive: 68%
Cc1ccc(C)n1-c1c(C(=O)NCCC(C)C)sc2ncccc12 | inactive: 79%

SMILES | survival
COCCc1nn2c(=O)cc(COC(=O)c3ccc(OC)c(OC)c3)nc2s1 | inactive: 120%
COc1cc(-c2nc3nc[nH]n3c2Nc2ccc(C(C)C)cc2)ccc1O | inactive: 70%
Cc1cccc(-n2ncc3c(Nc4ccc(Oc5ccc(Cl)cc5)cc4)ncnc32)c1 | inactive: 88%
CCc1nn(-c2ccccc2)c2nc(-c3cccc(OC)c3)c3cc(OC)c(OC)cc3c12 | inactive: 65%
CCOC(=O)c1ccccc1NC(=O)Cn1c(=O)n(Cc2nc(-c3ccccc3)no2)c(=O)c2ccccc21 | inactive: 59%
COc1ccccc1N1CCN(C(=O)Cn2ncc3c([nH]c4ccccc43)c2=O)CC1 | inactive: 78%
Cc1ccc(CNC(=O)CCCCn2c(=O)c3ccccc3n(Cc3c(C)cc(C)cc3C)c2=O)cc1 | inactive: 86%
COc1cccc(NC(=O)CSC2=Nc3ccccc3C3=NC(CC(=O)NCCc4ccccc4)C(=O)N23)c1 (configuration not stated) | inactive: 136%
COc1ccc(OC)c(S(=O)(=O)N2CCC(c3ccncc3)CC2)c1 | inactive: 124%
CCOCCCNC(=O)NC(C)c1c(-n2cccc2)sc2c1CCN(CC)C2 (configuration not stated) | inactive: 123%
CCc1nnc(NC(=O)CCC(=O)N2CC3(C)CC2CC(C)(C)C3)s1 (configuration not stated) | inactive: 113%
O=C(c1ccc2c(c1)N(Cc1ccccc1F)C(=O)c1ccccc1S2(=O)=O)N1CCCCC1 | inactive: 90%
COc1cccc(NC(=O)CSC2=Nc3ccccc3N=C(c3ccc(F)cc3)C2)c1 | inactive: 69%
CCc1ccc(C(=O)c2cn(CC(=O)NCCc3ccc(OC)c(OC)c3)c3nc(C)ccc3c2=O)cc1 | inactive: 71%
CCc1ccc(-n2c(SCc3ccccc3F)nc3[nH]ncc3c2=O)cc1 | inactive: 93%
O=C(CCc1nc(CN2CCN(S(=O)(=O)c3ccc(F)cc3)CC2)no1)N1CCCCC1 | inactive: 71%
O=C1c2[nH]nc(-c3ccccc3O)c2C(c2ccc(Cl)cc2)N1Cc1ccco1 (configuration not stated) | active: -1%
O=c1nc2sc3ccccc3n2c(=O)n1-c1ccc(Cl)c(Cl)c1 | inactive: 27%
Cc1ccc2nc(N3CCN(Cc4nnnn4Cc4ccccc4)CC3)c(C#N)cc2c1 | inactive: 110%
COc1ccccc1NC(=O)Cn1c(=O)n(-c2cccc(C(C)=O)c2)c(=O)c2c3c(sc21)CN(C(C)=O)CC3 | inactive: 75%
NC(=O)Nn1c(CCC(=O)O)ccc1-c1ccc(Cl)cc1 | inactive: 108%
